Results on 109 sequences are retold here after the supplement of paper PMC3334620.

Over roughly 33,000 sequences, “E-score (-0.5 to 0.5)” has its median near -0.04; the highest 2% begin near 0.36. The list shows a part of the results.

The experiment deals with T1, Hmlalpha2 (UniProt P0CY09).
T1 sequence: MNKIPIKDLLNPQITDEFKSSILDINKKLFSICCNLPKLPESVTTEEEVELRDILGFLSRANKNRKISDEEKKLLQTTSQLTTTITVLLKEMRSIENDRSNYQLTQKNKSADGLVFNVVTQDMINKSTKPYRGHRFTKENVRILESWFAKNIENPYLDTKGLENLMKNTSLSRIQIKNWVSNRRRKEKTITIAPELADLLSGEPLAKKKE
In words: PBM E-score (8-mer binding enrichment) (E-score (-0.5 to 0.5)); higher = stronger / more preferred TF binding; most listed sequences are background and not binding sites. To be noted: protein concentration: 200 nM; construct: GST-full length. In short, it runs like this: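 Yeast transcription factors, full-length or as DNA-binding domains, were expressed with a GST tag using PURExpress in vitro transcription/translation. At about 100-200 nM they were applied to universal all-10-mer Agilent arrays, double-stranded by primer extension on fresh or once-stripped slides. Fluorescent anti-GST detected bound protein, and masliner normalised the scans. E-scores for ungapped eight-base words, pooled with reverse complements, came from the Universal PBM Analysis Suite.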
As for AAATGTCC, the “PBM E-score” value is -0.0256.

For the sequence GCGCTACA, the “PBM E-score” value stood at 0.0713.

GGGGGATA: the “PBM E-score” value is -0.344.

On to ACACCCAT, for which the “PBM E-score” value was -0.0488.

As for CATCTTTC, the “PBM E-score” value amounted to 0.0645.

Turning to CATAAATG, the “PBM E-score” value is -0.0786.

Take AACTTACA: the “PBM E-score” value was 0.327.

As to GCTAACGA, the “PBM E-score” value turned out to be 0.0338.

As to GACAGGAC, the “PBM E-score” value is -0.0641.

As to ACTCATCG, the “PBM E-score” value was 0.0955.

Consider CGTGTCCC, for which the “PBM E-score” value stood at 0.0452.

In the case of GGCCAGGA, the “PBM E-score” value is -0.289.

Regarding AGCCAGAC, the “PBM E-score” value is -0.0435.

As for AGGTAGTC, the “PBM E-score” value is -0.102.

As for GGCCTAGA, the “PBM E-score” value is -0.21.

In the case of ACTCTGAC, the “PBM E-score” value is -0.0321.

As for GTAGCCTA, the “PBM E-score” value is -0.0197.

On to CGACATTA, for which the “PBM E-score” value stood at 0.244.

On to CGTAAAAC, for which the “PBM E-score” value stood at 0.281.

In the case of GTAGCGAC, the “PBM E-score” value is -0.0195.

Regarding GCATTGAA, the “PBM E-score” value was 0.141.

On to GTGAAACA, for which the “PBM E-score” value worked out at 0.148.

CCCCCAGG: the “PBM E-score” value is -0.26.

Regarding ATGATTTC, the “PBM E-score” value was determined as 0.105.

Regarding GGTCCATA, the “PBM E-score” value is -0.245.

In the case of ATCCTGGA, the “PBM E-score” value was -0.115.

Consider CATCGACA, for which the “PBM E-score” value was -0.0243.

With ATCACACA, the “PBM E-score” value stood at 0.228.

Regarding AAGTGTGG, the “PBM E-score” value was -0.123.

GGAGCGGA: the “PBM E-score” value was -0.275.

With AGTCCTCG, the “PBM E-score” value was -0.109.

For the sequence AGGCCTGC, the “PBM E-score” value is -0.139.

In the case of ACCCCGAG, the “PBM E-score” value is -0.134.

Consider CGGGAACG, for which the “PBM E-score” value was -0.33.

As for AACGCCTA, the “PBM E-score” value was -0.0389.

For ACACACTC, the “PBM E-score” value stood at 0.215.

On to CATGAATA, for which the “PBM E-score” value was determined as 0.182.

With GACGCATA, the “PBM E-score” value was found to be 0.0115.

Turning to ACTCCCTC, the “PBM E-score” value is -0.321.

As for ACTGACGG, the “PBM E-score” value was -0.297.

Regarding ACCATTGG, the “PBM E-score” value was 0.0682.

On to CTAACTAA, for which the “PBM E-score” value is -0.00569.

On to ATGCTCGC, for which the “PBM E-score” value is -0.0941.

AGCCTGAA: the “PBM E-score” value is -0.141.

Regarding AACTTGGC, the “PBM E-score” value is -0.00553.

For the sequence ACGTCTAC, the “PBM E-score” value was 0.173.

In the case of CCAGAGCG, the “PBM E-score” value is -0.245.

For AAATCCCC, the “PBM E-score” value was -0.186.

Take CAGGCAAA: the “PBM E-score” value was -0.0461.

On to GCGCTAAC, for which the “PBM E-score” value amounted to 0.143.

As to ACCCCACG, the “PBM E-score” value is -0.105.

As for ATCGGAAC, the “PBM E-score” value is -0.129.

Turning to CCTGGACC, the “PBM E-score” value is -0.0273.

In the case of GTGGGCAA, the “PBM E-score” value was -0.095.

For the sequence AAGTCGCC, the “PBM E-score” value was -0.0902.

CCACCTAA: the “PBM E-score” value is -0.162.

As to AGACCGCT, the “PBM E-score” value was -0.0882.

In the case of CATAACAA, the “PBM E-score” value came to 0.323.

For ACGGGTGG, the “PBM E-score” value was -0.233.

Turning to CTCAGAAG, the “PBM E-score” value was -0.215.

With ACTCCGAC, the “PBM E-score” value was -0.167.

ATGCTAAC: the “PBM E-score” value came to 0.241.

Consider AAAATGTC, for which the “PBM E-score” value turned out to be 0.12.

Take CGCGCACA: the “PBM E-score” value was determined as 0.133.

In the case of AGCTCTGG, the “PBM E-score” value is -0.159.

AAAATTGC: the “PBM E-score” value was -0.0622.

Regarding CATCGAGA, the “PBM E-score” value is -0.124.

On to CAACTTGC, for which the “PBM E-score” value is -0.159.

As for CGACCGAG, the “PBM E-score” value is -0.232.

For GTGGGAGA, the “PBM E-score” value is -0.224.

ATGGTTCC: the “PBM E-score” value was 0.0259.

Consider CAATGGTG, for which the “PBM E-score” value is -0.109.

Turning to CCGTCGGC, the “PBM E-score” value was -0.208.

In the case of GTTTCAGA, the “PBM E-score” value was -0.0374.

For GACGTACA, the “PBM E-score” value is 0.245.

As to ACCCAAGA, the “PBM E-score” value was -0.149.

For the sequence AGAGAGTC, the “PBM E-score” value is -0.252.

For AGCGAGCC, the “PBM E-score” value was -0.0977.

Turning to AACCGCCA, the “PBM E-score” value was -0.0627.

Turning to CGTTACCC, the “PBM E-score” value was -0.108.

Consider CTGCGGCA, for which the “PBM E-score” value was -0.294.

CCAGTCAC: the “PBM E-score” value is -0.107.

As to CAACCCGG, the “PBM E-score” value was -0.143.

ATAGTAAA: the “PBM E-score” value stood at 0.327.

As to TGATCAAA, the “PBM E-score” value is -0.137.

With GAAATAGC, the “PBM E-score” value is -0.0263.

Consider GGTGGTAC, for which the “PBM E-score” value is -0.243.

TATTTCGA: the “PBM E-score” value was found to be 0.182.

Regarding AACCAACG, the “PBM E-score” value was found to be 0.0747.

Regarding TCATCAGA, the “PBM E-score” value was -0.134.

Regarding ACCCATGC, the “PBM E-score” value is 0.191.

In the case of AGACACCG, the “PBM E-score” value is -0.101.

As for CTCTACCC, the “PBM E-score” value is -0.26.

Take CTCGATCC: the “PBM E-score” value was -0.151.

With CTTTAAGC, the “PBM E-score” value is -0.0889.

Take ACGGGGCC: the “PBM E-score” value was -0.27.

With AATACTAG, the “PBM E-score” value is 0.21.

For the sequence CGACCAAC, the “PBM E-score” value worked out at 0.0667.

As to GGGAACAC, the “PBM E-score” value was 0.05.

With AAGATCTC, the “PBM E-score” value was found to be 0.0109.

On to GATGGAGA, for which the “PBM E-score” value was -0.167.

For the sequence CTCAGCTC, the “PBM E-score” value is -0.277.

On to CCTCCCTA, for which the “PBM E-score” value is -0.229.

As for GAGGAAGC, the “PBM E-score” value is -0.231.

In the case of ATGACAGC, the “PBM E-score” value was -0.00948.

With ACTCCCGG, the “PBM E-score” value was -0.199.

In the case of CAGATGTC, the “PBM E-score” value is -0.114.

Take AAGTCACT: the “PBM E-score” value is 0.055.

As for CACACGTC, the “PBM E-score” value is 0.166.
